Measurements taken from publication PMC12820563, “FoxP3 forms a head-to-head dimer in vivo and stabilizes its multimerization on adjacent microsatellites”.
This is one part of the list.

Each sequence was assayed against T1, MBP-FoxP1dN (Mus musculus, UniProt P58462 326-579) (assay: PD-seq (MBP pull-down with sequencing); 20 mM Tris-HCl pH 7.5, 100 mM NaCl, 1.5 mM MgCl2, 0.4 uM protein, 0.1 uM dsDNA library, 30 min, room temperature, amylose pull-down; high values mean tight binding). Details: protein: recombinant; tags: His6-MBP; chain copies: 2; dsDNA, one strand shown.
T1 sequence: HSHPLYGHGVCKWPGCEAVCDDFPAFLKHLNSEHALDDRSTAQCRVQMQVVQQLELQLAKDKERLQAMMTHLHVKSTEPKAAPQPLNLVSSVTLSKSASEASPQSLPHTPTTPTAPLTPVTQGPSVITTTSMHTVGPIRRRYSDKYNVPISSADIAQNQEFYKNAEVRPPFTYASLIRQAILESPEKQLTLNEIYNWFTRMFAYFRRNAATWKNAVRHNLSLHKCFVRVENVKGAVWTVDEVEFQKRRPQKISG
How it was run: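 A fragment of mouse FoxP3 or FoxP1 without its N-terminus, carrying a His6-MBP tag and produced in E. coli, was combined at 0.4 µM with a 0.1 µM degenerate double-stranded DNA library filled in with Klenow. The mixture sat for 30 min at room temperature in Tris pH 7.5 buffer containing NaCl and MgCl2. Protein–DNA complexes were captured on amylose resin, washed three times, and the DNA was freed with proteinase K, barcoded by PCR and sequenced on Illumina. Binding is expressed as reads-per-million enrichment of pull-down over input, with replicates pooled.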

Row | Sequence | binding signal
1 | GATGATTGTTCTCCCAGCTGATGAATTTAATTCTTCGAGTAAACAAATTTTCCTAATCTTTCTGTTCAAGCGCCATCTAC | 0.967 RPM ratio (pull-down/input)
2 | GATGATTGTTCTCCCAGCTGATGAATTGAAACTATCGAGTAAACAAATTTTCCTAATCTTTCTGTTCAAGCGCCATCTAC | 0.956 RPM ratio (pull-down/input)
3 | GATGATTGTTCTCCCAGCTGATGAATTCTGGAATTCGAGTAAACAAATTTTCCTAATCTTTCTGTTCAAGCGCCATCTAC | 0.887 RPM ratio (pull-down/input)
4 | GATGATTGTTCTCCCAGCTGATGAATTCTGGCGTTCGAGTAAACAAATTTTCCTAATCTTTCTGTTCAAGCGCCATCTAC | 0.829 RPM ratio (pull-down/input)
5 | GATGATTGTTCTCCCAGCTGATGAATTTCCGTTCTCGAGTAAACAAATTTTCCTAATCTTTCTGTTCAAGCGCCATCTAC | 0.843 RPM ratio (pull-down/input)
6 | GATGATTGTTCTCCCAGCTGATGAATTCGACTAGTCGAGTAAACAAATTTTCCTAATCTTTCTGTTCAAGCGCCATCTAC | 0.754 RPM ratio (pull-down/input)
7 | GATGATTGTTCTCCCAGCTGATGAATTGCAATCTTCGAGTAAACAAATTTTCCTAATCTTTCTGTTCAAGCGCCATCTAC | 1.32 RPM ratio (pull-down/input)
8 | GATGATTGTTCTCCCAGCTGATGAATTCCATAAGTCGAGTAAACAAATTTTCCTAATCTTTCTGTTCAAGCGCCATCTAC | 0.896 RPM ratio (pull-down/input)
9 | GATGATTGTTCTCCCAGCTGATGAATTCGAACGTTCGAGTAAACAAATTTTCCTAATCTTTCTGTTCAAGCGCCATCTAC | 0.852 RPM ratio (pull-down/input)
10 | GATGATTGTTCTCCCAGCTGATGAATTACATTACTCGAGTAAACAAATTTTCCTAATCTTTCTGTTCAAGCGCCATCTAC | 1.27 RPM ratio (pull-down/input)
11 | GATGATTGTTCTCCCAGCTGATGAATTAACACAGTCGAGTAAACAAATTTTCCTAATCTTTCTGTTCAAGCGCCATCTAC | 1.1 RPM ratio (pull-down/input)
12 | GATGATTGTTCTCCCAGCTGATGAATTGCGTCGTTCGAGTAAACAAATTTTCCTAATCTTTCTGTTCAAGCGCCATCTAC | 1.04 RPM ratio (pull-down/input)
13 | GATGATTGTTCTCCCAGCTGATGAATTGAGCTAATCGAGTAAACAAATTTTCCTAATCTTTCTGTTCAAGCGCCATCTAC | 0.97 RPM ratio (pull-down/input)
14 | GATGATTGTTCTCCCAGCTGATGAATTATTTCCCTCGAGTAAACAAATTTTCCTAATCTTTCTGTTCAAGCGCCATCTAC | 1.09 RPM ratio (pull-down/input)
15 | GATGATTGTTCTCCCAGCTGATGAATTCTTTGTGTCGAGTAAACAAATTTTCCTAATCTTTCTGTTCAAGCGCCATCTAC | 1.06 RPM ratio (pull-down/input)
16 | GATGATTGTTCTCCCAGCTGATGAATTACTCGGTTCGAGTAAACAAATTTTCCTAATCTTTCTGTTCAAGCGCCATCTAC | 0.957 RPM ratio (pull-down/input)
17 | GATGATTGTTCTCCCAGCTGATGAATTCATGACATCGAGTAAACAAATTTTCCTAATCTTTCTGTTCAAGCGCCATCTAC | 1.08 RPM ratio (pull-down/input)
18 | GATGATTGTTCTCCCAGCTGATGAATTCTTTTGTTCGAGTAAACAAATTTTCCTAATCTTTCTGTTCAAGCGCCATCTAC | 1.03 RPM ratio (pull-down/input)
19 | GATGATTGTTCTCCCAGCTGATGAATTGCACGGATCGAGTAAACAAATTTTCCTAATCTTTCTGTTCAAGCGCCATCTAC | 1.03 RPM ratio (pull-down/input)
20 | GATGATTGTTCTCCCAGCTGATGAATTATAATGATCGAGTAAACAAATTTTCCTAATCTTTCTGTTCAAGCGCCATCTAC | 1.13 RPM ratio (pull-down/input)

Row | Sequence | binding signal
21 | GATGATTGTTCTCCCAGCTGATGAATTATCTTCTTCGAGTAAACAAATTTTCCTAATCTTTCTGTTCAAGCGCCATCTAC | 1 RPM ratio (pull-down/input)
22 | GATGATTGTTCTCCCAGCTGATGAATTAAAGCTGTCGAGTAAACAAATTTTCCTAATCTTTCTGTTCAAGCGCCATCTAC | 0.981 RPM ratio (pull-down/input)
23 | GATGATTGTTCTCCCAGCTGATGAATTCAAAATTTCGAGTAAACAAATTTTCCTAATCTTTCTGTTCAAGCGCCATCTAC | 0.937 RPM ratio (pull-down/input)
24 | GATGATTGTTCTCCCAGCTGATGAATTCGAGGCGTCGAGTAAACAAATTTTCCTAATCTTTCTGTTCAAGCGCCATCTAC | 0.901 RPM ratio (pull-down/input)
25 | GATGATTGTTCTCCCAGCTGATGAATTGCCGTCATCGAGTAAACAAATTTTCCTAATCTTTCTGTTCAAGCGCCATCTAC | 1.08 RPM ratio (pull-down/input)
26 | GATGATTGTTCTCCCAGCTGATGAATTTTAAACCTCGAGTAAACAAATTTTCCTAATCTTTCTGTTCAAGCGCCATCTAC | 0.783 RPM ratio (pull-down/input)
27 | GATGATTGTTCTCCCAGCTGATGAATTGTGGTCTTCGAGTAAACAAATTTTCCTAATCTTTCTGTTCAAGCGCCATCTAC | 1.17 RPM ratio (pull-down/input)
28 | GATGATTGTTCTCCCAGCTGATGAATTTTTTTTCTCGAGTAAACAAATTTTCCTAATCTTTCTGTTCAAGCGCCATCTAC | 0.756 RPM ratio (pull-down/input)
29 | GATGATTGTTCTCCCAGCTGATGAATTGATCTTGTCGAGTAAACAAATTTTCCTAATCTTTCTGTTCAAGCGCCATCTAC | 0.926 RPM ratio (pull-down/input)
30 | GATGATTGTTCTCCCAGCTGATGAATTATGACGGTCGAGTAAACAAATTTTCCTAATCTTTCTGTTCAAGCGCCATCTAC | 0.894 RPM ratio (pull-down/input)
31 | GATGATTGTTCTCCCAGCTGATGAATTACGCTCATCGAGTAAACAAATTTTCCTAATCTTTCTGTTCAAGCGCCATCTAC | 1.07 RPM ratio (pull-down/input)
32 | GATGATTGTTCTCCCAGCTGATGAATTTATGCCTTCGAGTAAACAAATTTTCCTAATCTTTCTGTTCAAGCGCCATCTAC | 1.19 RPM ratio (pull-down/input)
33 | GATGATTGTTCTCCCAGCTGATGAATTGTGGCGCTCGAGTAAACAAATTTTCCTAATCTTTCTGTTCAAGCGCCATCTAC | 1.09 RPM ratio (pull-down/input)
34 | GATGATTGTTCTCCCAGCTGATGAATTGCCCCAGTCGAGTAAACAAATTTTCCTAATCTTTCTGTTCAAGCGCCATCTAC | 0.909 RPM ratio (pull-down/input)
35 | GATGATTGTTCTCCCAGCTGATGAATTATTTCAGTCGAGTAAACAAATTTTCCTAATCTTTCTGTTCAAGCGCCATCTAC | 1.04 RPM ratio (pull-down/input)
36 | GATGATTGTTCTCCCAGCTGATGAATTTGCATTGTCGAGTAAACAAATTTTCCTAATCTTTCTGTTCAAGCGCCATCTAC | 1.44 RPM ratio (pull-down/input)
37 | GATGATTGTTCTCCCAGCTGATGAATTCACGAGATCGAGTAAACAAATTTTCCTAATCTTTCTGTTCAAGCGCCATCTAC | 0.831 RPM ratio (pull-down/input)
38 | GATGATTGTTCTCCCAGCTGATGAATTCCTTTGGTCGAGTAAACAAATTTTCCTAATCTTTCTGTTCAAGCGCCATCTAC | 0.887 RPM ratio (pull-down/input)
39 | GATGATTGTTCTCCCAGCTGATGAATTTCACTCGTCGAGTAAACAAATTTTCCTAATCTTTCTGTTCAAGCGCCATCTAC | 0.833 RPM ratio (pull-down/input)
40 | GATGATTGTTCTCCCAGCTGATGAATTGCCTGAATCGAGTAAACAAATTTTCCTAATCTTTCTGTTCAAGCGCCATCTAC | 0.981 RPM ratio (pull-down/input)
